In all, about 310,000 compounds went through this assay and about 2,200 (0.71%) showed an effect of 50% or more. Effects have a minus sign here. The list shows a part of the results.

The record followed here is PMC4336329 (PLoS ONE, 2015).

In this assay the target is human ether-à-go-go-related gene (hERG) potassium channel (human, UniProt Q12809). Put plainly: primary screen, population patch clamp on CHO cells stably expressing hERG.
Chain of human ether-à-go-go-related gene (hERG) potassium channel (Q12809 whole entry, looked up): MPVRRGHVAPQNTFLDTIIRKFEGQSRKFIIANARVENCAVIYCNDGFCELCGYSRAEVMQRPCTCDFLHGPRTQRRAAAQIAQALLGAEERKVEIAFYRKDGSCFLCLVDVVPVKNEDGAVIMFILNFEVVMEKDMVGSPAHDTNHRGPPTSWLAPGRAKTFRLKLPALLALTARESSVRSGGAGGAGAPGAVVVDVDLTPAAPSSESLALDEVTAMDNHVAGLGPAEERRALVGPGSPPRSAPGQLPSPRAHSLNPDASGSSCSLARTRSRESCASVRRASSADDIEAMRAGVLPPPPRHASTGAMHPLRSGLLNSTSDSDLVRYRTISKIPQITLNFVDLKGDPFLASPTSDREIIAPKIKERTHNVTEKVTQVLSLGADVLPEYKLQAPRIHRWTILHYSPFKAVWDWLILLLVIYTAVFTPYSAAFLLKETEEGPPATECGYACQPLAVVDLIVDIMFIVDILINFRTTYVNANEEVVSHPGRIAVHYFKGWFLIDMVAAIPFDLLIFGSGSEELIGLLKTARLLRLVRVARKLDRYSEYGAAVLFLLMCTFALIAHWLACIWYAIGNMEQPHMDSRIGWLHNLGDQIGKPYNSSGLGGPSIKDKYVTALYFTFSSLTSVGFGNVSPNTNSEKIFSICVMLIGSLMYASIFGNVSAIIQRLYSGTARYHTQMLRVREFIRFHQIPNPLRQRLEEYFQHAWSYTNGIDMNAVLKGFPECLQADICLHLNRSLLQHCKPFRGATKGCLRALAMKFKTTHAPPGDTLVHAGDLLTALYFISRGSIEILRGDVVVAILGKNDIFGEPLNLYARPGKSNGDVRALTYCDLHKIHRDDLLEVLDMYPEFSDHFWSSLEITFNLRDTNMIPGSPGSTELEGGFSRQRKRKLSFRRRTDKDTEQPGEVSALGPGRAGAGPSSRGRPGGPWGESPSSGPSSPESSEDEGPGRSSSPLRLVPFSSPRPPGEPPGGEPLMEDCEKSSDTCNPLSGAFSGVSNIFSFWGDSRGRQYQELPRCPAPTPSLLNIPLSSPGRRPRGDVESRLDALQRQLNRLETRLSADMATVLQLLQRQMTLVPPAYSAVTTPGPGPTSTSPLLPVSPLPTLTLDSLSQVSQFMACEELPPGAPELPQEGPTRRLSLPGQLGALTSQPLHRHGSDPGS
Take `CCOC(=O)c1nc2ccccc2c(=O)n1-c1cccc(C)c1`: the “hERG current change (%, negative = inhibition) at 1uM” value is recorded as 8.13%.
With `COc1ccc(Cl)cc1S(=O)(=O)N(C)CC(=O)NCc1ccc2c(c1)OCO2` the figure was 4.79%; with `CN(C)C(=O)c1ccc(=O)n(Cc2ccc(Cl)cc2Cl)c1`, 5.25%; with `COc1ccc(-c2nnnn2C(C)C)cc1S(=O)(=O)Nc1ccccc1`, 9.76%.
Regarding `CC(=O)N1CCc2c(sc(NC(=O)Cc3ccccc3)c2C#N)C1`, the “hERG current change (%, negative = inhibition) at 1uM” value was 13.9%.
With `Cc1cc(=O)n2nc(N3CCCC(C(=O)NC4CCC(C)CC4)C3)sc2n1` (stereo not drawn) the figure was 14.2%; with `O=C(COC(=O)COc1ccc(Cl)cc1)NCc1cccs1`, 5.43%; with `COc1ccc(Cn2cccc(NC(=O)Nc3cccc(C#N)c3)c2=O)cc1`, 19.8%.
To `NC(=O)CC(CC(=O)OCc1ccccc1)c1ccccc1` (stereo not drawn) belongs 14.9%; to `CCCNC(=O)C12CCC(C)(c3nc4cc(C)c(C)cc4nc31)C2(C)C` (stereo not drawn), -4.51%; to `Cc1ccc(Cn2nnc3c(=O)[nH]c(C4CCCN(C(=O)c5ccco5)C4)nc32)cc1` (stereo not drawn), 14.3%.
To `O=C1CC(c2c[nH]c3ccccc23)C(=O)N1c1ccccc1` (stereo not drawn) belongs -2.79%; to `CCOC(=O)c1cc(CC)sc1NC(=O)c1ccc(N2C(=O)CCC2=O)cc1`, 9.54%.
For the molecule `CCOc1ccc(S(=O)(=O)N2CCCC(C(=O)NCC3CCCO3)C2)cc1` (stereo not drawn), the “hERG current change (%, negative = inhibition) at 1uM” value turned out to be 2.36%.
To `Cc1ccccc1S(=O)(=O)Oc1cccc2c(O)cccc12` belongs 13%.
Consider `CC(C)CCOc1ccc(Cl)cc1CN1CCOCC1.Cl`, for which the “hERG current change (%, negative = inhibition) at 1uM” value was found to be 13%.
For the molecule `COc1ccc(OCC(O)CN2CCCCC2)cc1.Cl` (stereo not drawn), the “hERG current change (%, negative = inhibition) at 1uM” value is listed as 19.2%.
To `COc1cc(OC)cc(-c2c(-c3cccs3)c3cc(Br)ccc3n2C)c1` belongs 20.8%; to `CCOc1ccc(NC(=O)NC2CCS(=O)(=O)C2)cc1` (stereo not drawn), 4.38%.
To `Cc1ccc(S(=O)(=O)N2CCCCC2c2cccnc2)c(C)c1C` (stereo not drawn) belongs 5.11%; to `O=C(NC1CCN(C(=O)Nc2cccc(Cl)c2)CC1)c1ccccc1`, 8.13%; to `COc1ccc(C(=O)Nc2ccccc2N2CCOCC2)cc1[N+](=O)[O-]`, 5.7%.
To `CCCN(CC1CC1)C(=O)CCc1nnc(CCc2c[nH]c3ccccc23)o1` belongs 15.8%.
For `CCC(=O)N(CCc1ccccc1)Cc1cc2ccc(OC)cc2[nH]c1=O`, the “hERG current change (%, negative = inhibition) at 1uM” value is recorded as -1.09%.
Turning to `Br.COc1ccc(C(=O)CN2CCCCC2)cc1`, the “hERG current change (%, negative = inhibition) at 1uM” value was 13.9%.
To `CN(c1ccccc1)S(=O)(=O)c1ccc(C(=O)NCc2ccccc2F)cc1` belongs 2.12%.
On to `O=C(Nc1ccc(Cl)cc1)c1cccnc1N1CCCCC1`, for which the “hERG current change (%, negative = inhibition) at 1uM” value came out at 3.27%.
With `CC(=O)c1cccc(NC(=O)CN2CCc3cc4c(cc3C2)OCCCO4)c1` the figure was -7.11%.
With `CC1CCN(C2=NC(=O)/C(=C/c3cn[nH]c3-c3ccccc3)S2)CC1` the figure was 2.59%.
With `CCCCCC(=O)Nc1nnn(CCC)n1`, the “hERG current change (%, negative = inhibition) at 1uM” value turned out to be 2.43%.
To `CCc1ccc(-c2csc(NC(=O)C3CC(=O)N(c4ccc5c(c4)OCCO5)C3)n2)cc1` (stereo not drawn) belongs 11.8%.
With `Cc1nc(C)c(-c2csc(Nc3ccc(S(N)(=O)=O)cc3)n2)s1`, the “hERG current change (%, negative = inhibition) at 1uM” value came out at 14.4%.
With `CC(C(=O)OCC(=O)c1ccc(Br)cc1)N1C(=O)C2C3C=CC(C3)C2C1=O` (stereo not drawn) the figure was 2.95%.
For the molecule `Cc1ccc(C)c2c1sc(=NC(=O)CN1C(=O)CCC1=O)n2C`, the “hERG current change (%, negative = inhibition) at 1uM” value was determined as 13.2%.
To `Cc1[nH]c2ccccc2c1/C=N/NC(=O)c1cccc(S(=O)(=O)Nc2ccccc2Cl)c1` belongs 6.57%.
To `COc1ccc(-c2cc(-c3ccccc3)nc(N3CCCC3)n2)cc1OC` belongs 1.32%; to `C=CCNC(=O)C(=O)NCCOc1ccccc1Cl`, 10.2%.
Turning to `CC(C)(C)c1ccc(C(=O)NC(=S)NNC(=O)c2cccs2)cc1`, the “hERG current change (%, negative = inhibition) at 1uM” value turned out to be 15.3%.
With `O=C(CN1CCOCC1)Nc1ccc(Oc2ccccc2)cc1` the figure was 1.27%.
With `COc1cc(C2CC(=O)N3CN(Cc4ccco4)CSC3=C2C#N)ccc1OCc1ccccc1` (stereo not drawn) the figure was 9.48%; with `COc1ccc(/C=C(\NC(=O)c2ccccc2)C(=O)N2CCN(C)CC2)cc1OC`, 23.7%; with `COC(=O)c1cc(=O)n(-c2ccc(F)cc2)c(=Nc2ccc(F)cc2)s1`, 11.9%.
To `COCCn1c(=O)[nH]c(=O)c2c(C(F)(F)F)cc(-c3cccs3)nc21` belongs 9.12%; to `CCc1ccc(OCC(=O)NC(C)(C)C)cc1`, 25.8%; to `O=C(Nc1cccc(Cl)c1)Nc1cccc(Cl)c1`, 16.1%.
